The other results are listed elsewhere or left out.
tested on: S. aureus RN4220; experiment: growth inhibition call (relative growth <= 0.2); details: 50 µM

Growth inhibition call, active:
O=C(N[C@@H](c1cccnc1)c1ccc2c(c1)OCO2)C1CCN(CCOc2ccc(Cl)cc2Cl)CC1

Growth inhibition call, inactive:
O=C(CO)C(O)C(O)C(O)CO (stereo not given)
Cc1noc(C)c1NC(=O)N(C)C[C@H]1Oc2c(NC(=O)c3ccncc3)cccc2C(=O)N([C@H](C)CO)C[C@@H]1C
COc1cccc(NC(=O)N[C@H]2C=C[C@@H](CC(=O)N3CCOCC3)O[C@H]2CO)c1
CC(C)NC(=O)N(C)C[C@@H]1Oc2ccc(NS(=O)(=O)c3cccs3)cc2C(=O)N([C@@H](C)CO)C[C@H]1C
Cc1c(C(=O)O)sc2[nH]cnc(=O)c12
C[C@@H]1CN([C@@H](C)CO)C(=O)c2cccc(NC(=O)Nc3ccc(C(F)(F)F)cc3)c2O[C@@H]1CN(C)C(=O)Nc1cccc2ccccc12
C[C@@H]1CN([C@H](C)CO)C(=O)CCCn2cc(nn2)CO[C@H]1CN(C)Cc1ccc2c(c1)OCCN2C
Cc1noc(C)c1NC(=O)N(C)C[C@H]1OCCCC[C@H](C)Oc2ccc(NC(=O)Nc3ccc(F)cc3)cc2C(=O)N([C@H](C)CO)C[C@@H]1C
C[C@@H]1CN([C@@H](C)CO)C(=O)Cc2cc(NS(=O)(=O)c3cn(C)cn3)ccc2O[C@H]1CN(C)S(=O)(=O)c1ccc(Cl)cc1
C[C@H]1CN([C@@H](C)CO)C(=O)c2cc(NS(=O)(=O)c3cn(C)cn3)ccc2O[C@@H]1CN(C)S(=O)(=O)c1cccs1
CCCCn1c(-c2ccccc2)nc(-c2ccccc2)c1CN(Cc1ccc2c(c1)OCO2)Cc1ccc2c(c1)OCO2
C[C@@H]1CN([C@@H](C)CO)S(=O)(=O)c2ccc(C#Cc3ccccc3)cc2O[C@H]1CN(C)C(=O)Cc1ccccn1
C[C@@H]1CN([C@H](C)CO)C(=O)c2cc(NC(=O)NC3CCCCC3)ccc2O[C@@H](C)CCCCO[C@H]1CN(C)S(=O)(=O)c1cccs1
CCCNC(=O)N(C)C[C@H]1Oc2cc(-c3ccccc3F)ccc2S(=O)(=O)N([C@@H](C)CO)C[C@@H]1C
CCCC#Cc1ccc2c(c1)O[C@H](CN(C)C(=O)c1cnccn1)[C@H](C)CN([C@@H](C)CO)S2(=O)=O
COc1ccc(S(=O)(=O)Nc2ccc3c(c2)C(=O)N([C@@H](C)CO)C[C@H](C)[C@@H](CN(C)C(=O)c2ccccc2)OCCCC[C@@H](C)O3)cc1
Cc1c(-c2ccc(-c3ccc(Cl)c(Cl)c3)o2)nc(-c2ccccc2)c2c1CO[Si]2(C(C)C)C(C)C
N=C(N)NCCCCNC(=N)N
O=C(C[C@@H]1C=C[C@H](NC(=O)Nc2ccc3c(c2)OCO3)[C@@H](CO)O1)NCCCN1CCOCC1
C[C@H]1CN([C@@H](C)CO)C(=O)c2cc(NS(=O)(=O)c3cccs3)ccc2O[C@H]1CN(C)Cc1ccc(Oc2ccccc2)cc1
COc1ccc(S(=O)(=O)N[C@@H]2C=C[C@H](CC(=O)NCCc3ccncc3)O[C@@H]2CO)cc1
COc1ccc(NC(=O)N(C)C[C@@H]2OCCCC[C@H](C)Oc3ccc(NC(=O)Nc4c(C)noc4C)cc3C(=O)N([C@H](C)CO)C[C@@H]2C)cc1
CCC1=C(C)CN(C(=O)NCCc2ccc(S(=O)(=O)NC(=O)NC3CCC(C)CC3)cc2)C1=O (stereo not given)
C[C@H](CO)N1C[C@H](C)[C@@H](CN(C)Cc2cccc(F)c2)Oc2cc(C#CC3CC3)ccc2S1(=O)=O
CCN(CC)c1ccc(N2CC=C[C@@]34O[C@@H]5/C=C\CCCOC(=O)[C@@H]5[C@H]3C(=O)N([C@@H](C)CO)[C@@H]4C2=O)cc1
COc1ccc(-c2cc(=O)c3c(O)cc(O[C@@H]4O[C@H](CO[C@@H]5O[C@@H](C)[C@H](O)[C@@H](O)[C@H]5O)[C@@H](O)[C@H](O)[C@H]4O)cc3o2)cc1O
C[C@H]1CN([C@@H](C)CO)C(=O)c2cc(NC(=O)CCCCCC(=O)Nc3ccccc3N)ccc2O[C@H]1CN(C)Cc1ccc(Cl)c(Cl)c1
C[C@@H]1CN([C@H](C)CO)C(=O)Cc2cc(NC(=O)CCN3CCOCC3)ccc2O[C@@H]1CN(C)S(=O)(=O)c1ccc(F)cc1
NCCOc1ccccc1Cc1ccccc1
C[C@H](CO)N1C[C@H](C)[C@@H](CN(C)C(=O)Nc2cccc3ccccc23)OCCCC[C@H](C)Oc2ccc(NC(=O)CCC(F)(F)F)cc2C1=O
C[C@H](CO)N1C[C@H](C)[C@H](CN(C)CC2CCCCC2)OCCCC[C@H](C)Oc2ccc(NC(=O)CCCCCC(=O)Nc3ccccc3N)cc2C1=O
C[C@@H]1CN([C@H](C)CO)C(=O)c2cc(NC(=O)C3CCCCC3)ccc2O[C@@H](C)CCCCO[C@H]1CN(C)S(=O)(=O)c1cccs1
CC(=O)n1cc([C@H]2C=C(C(=O)N3CCCCCCC3)O[C@@H](OCc3ccc(COC(=O)NCCCCCC(=O)NO)cc3)C2)c2ccccc21
COc1ccc2c3c(n(c2c1)C)[C@@H](CO)N(C[C@]13CN(C1)C(=O)Nc1cccc(c1)F)C(=O)C1CCOCC1
CCCCCCOc1ccccc1C(N)=O
NC(=O)N1CCC(CC(=O)N2CCC([C@H]3c4ncc(Br)cc4CCc4cc(Cl)cc(Br)c43)CC2)CC1
C[C@H](CO)N1C[C@H](C)[C@H](CN(C)S(=O)(=O)c2ccccc2)OCCCC[C@H](C)Oc2ccc(NC(=O)c3ccccc3)cc2C1=O
O=C(C[C@H]1C[C@@H]2c3cc(NC(=O)Nc4ccccc4F)ccc3O[C@@H]2[C@@H](CO)O1)NCc1ccc(Oc2ccccc2)cc1
CO[C@H](CN(C)C(=O)Nc1ccc(C(F)(F)F)cc1)[C@@H](C)CN(Cc1ccccc1Cl)[C@H](C)CO

Reference: the antibiotic and cytotoxicity screens of Wong et al. (2023)
